# Measured values published in the supplement of paper PMC8728848.
# The list shows a part of the results.
# B1: a L Fucosidase (Streptosporangium roseum), D2B1P1_STRRD (protein)
# chain: MRRKLLLVPAVGLLVIGSIFATQPVASADTPPVYEPTVESLNSHPVPQWFNDDKFGIFIHWGAYSVPAWGPRGSYAEWYGNYMNAGGSATNAHHKATYGQDFNYDAFLQQWKAEKFDPADWVKLFKDAGAKYFVLTSKHHEGMALWDSKSSGRDSVDLGPGRDLAKELFDAARKDEAKLKAGFYYSLYEWYNPAYTGRPATNPYTGAEIPYTGAPGGGDYVKDYMLPQMRELIDGYDPDIIWCDGQWEKPASYWNTAGVIADYYNKALNSGKEVAVANRCKIQSGNLDSPELDFQTPEYTVKPDIDPVKWESSRGIAHSYGYNQNEPEEDHLTSDQLVDSLVDIVSKNGNLLLDIGPKADGTIPEIQRQRLLDIGAWLKANGEAIYGTTYWNRAEEKGGPDDVRYTAKDATLYATALKWPGEQLTLGADLPVDHSTRITMLGSGARLSWSRDEQGRVVVNTPQEAGKHAYVFKIETPGVRSLLRTSSSLAKEIAPGRTISGELTVTNPGKRHTPATKLSLTVPQGWTATLGAPRVRPLGPGESVKVPISVSAPEGVAPAPYTLGLYQRTGRMGTTTALPLTVNRPNLSLGKPATQKSTGYDAPASRAVDGNTGGDWSAGSTTHTAEPEKQAWWQVDLGASARLDSVDVWNRLDCCADRLKDFWVMASDQPFTTDDLDQARTAPGVTAVHVGEQAGSPSKVKLPEGTRGRYVRIQLASPSNPLSLAEVQVRGSMARPNLSLGKPATQKSTGYDAPASRAVDGNTGGDWSAGSTTHTAEPEKQAWWQVDLGASARLDSVDVWNRLDCCADRLKDFWVMASDQPFTTDDLDQARTAPGVTAVHVGEQAGSPSKVKLPEGTRGRYVRIQLASPSNPLSLAEVQVRLEHHHHHHS
# What was measured:
# Assay in all cases: glycan array binding signal (z-score within array); higher = stronger binding
# Conditions in all cases: glycan notation: IUPAC condensed, linker removed
# [1] = target: GlcNAc(a1-6)Gal(b1-4)GlcNAc
# In short: (§1)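 The Consortium for Functional Glycomics database supplied 3228 glycan arrays, of which those lacking an available protein sequence were dropped. The binding signal, a within-array Z-score, was averaged across arrays of the same protein sequence and across linkers. Negative scores can be read as non-binding.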
# [2] = target: GlcNAc(b1-2)Gal(b1-3)GalNAc
# In short: as §1
# [3] = target: GlcNAc(b1-2)Man(a1-3)[GlcNAc(b1-2)Man(a1-6)]Man(b1-4)GlcNAc(b1-4)GlcNAc
# In short: as §1
# [4] = target: GlcNAc(b1-2)Man(a1-3)[GlcNAc(b1-2)Man(a1-6)]Man(b1-4)GlcNAc(b1-4)[Fuc(a1-6)]GlcNAc
# In short: as §1
# [5] = target: GlcNAc(b1-2)Man(a1-3)[GlcNAc(b1-4)][GlcNAc(b1-2)Man(a1-6)]Man(b1-4)GlcNAc(b1-4)GlcNAc
# In short: as §1
# [6] = target: GlcNAc(b1-2)Man(a1-3)[GlcNAc(b1-4)][GlcNAc(b1-2)Man(a1-6)]Man(b1-4)GlcNAc(b1-4)[Fuc(a1-6)]GlcNAc
# In short: as §1
# [7] = target: GlcNAc(b1-2)[GlcNAc(b1-4)]Man(a1-3)[GlcNAc(b1-2)Man(a1-6)]Man(b1-4)GlcNAc(b1-4)GlcNAc
# In short: as §1
# [8] = target: GlcNAc(b1-2)[GlcNAc(b1-4)]Man(a1-3)[GlcNAc(b1-4)][GlcNAc(b1-2)Man(a1-6)]Man(b1-4)GlcNAc(b1-4)GlcNAc
# In short: as §1
# [9] = target: GlcNAc(b1-2)[GlcNAc(b1-4)]Man(a1-3)[GlcNAc(b1-4)][GlcNAc(b1-2)[GlcNAc(b1-6)]Man(a1-6)]Man(b1-4)GlcNAc(b1-4)GlcNAc
# In short: as §1
# [10] = target: GlcNAc(b1-2)[GlcNAc(b1-4)]Man(a1-3)[GlcNAc(b1-4)][GlcNAc(b1-2)[GlcNAc(b1-6)]Man(a1-6)]Man(b1-4)GlcNAc(b1-4)[Fuc(a1-6)]GlcNAc
# In short: as §1
# [11] = target: GlcNAc(b1-2)[GlcNAc(b1-6)]Man(a1-6)[GlcNAc(b1-2)Man(a1-3)]Man(b1-4)GlcNAc(b1-4)GlcNAc
# In short: as §1
# [12] = target: GlcNAc(b1-2)[GlcNAc(b1-6)]Man(a1-6)[GlcNAc(b1-2)Man(a1-3)]Man(b1-4)GlcNAc(b1-4)[Fuc(a1-6)]GlcNAc
# In short: as §1
# [13] = target: GlcNAc(b1-2)[GlcNAc(b1-6)]Man(a1-6)[GlcNAc(b1-4)][GlcNAc(b1-2)Man(a1-3)]Man(b1-4)GlcNAc(b1-4)GlcNAc
# In short: as §1
# GlcNAc(b1-3)Fuc = target: GlcNAc(b1-3)Fuc
# In short: as §1
# GlcNAc(b1-3)Gal = target: GlcNAc(b1-3)Gal
# In short: as §1
# [14] = target: GlcNAc(b1-3)Gal(b1-3)GalNAc
# In short: as §1
# GlcNAc(b1-3)Gal(b1-4)Glc = target: GlcNAc(b1-3)Gal(b1-4)Glc
# In short: as §1
# [15] = target: GlcNAc(b1-3)Gal(b1-4)GlcNAc
# In short: as §1
# [16] = target: GlcNAc(b1-3)Gal(b1-4)GlcNAc(b1-2)Man(a1-3)[GlcNAc(b1-3)Gal(b1-4)GlcNAc(b1-2)Man(a1-6)]Man(b1-4)GlcNAc(b1-4)GlcNAc
# In short: as §1
# [17] = target: GlcNAc(b1-3)Gal(b1-4)GlcNAc(b1-2)Man(a1-3)[GlcNAc(b1-3)Gal(b1-4)GlcNAc(b1-2)Man(a1-6)]Man(b1-4)GlcNAc(b1-4)[Fuc(a1-6)]GlcNAc
# In short: as §1
# [18] = target: GlcNAc(b1-3)Gal(b1-4)GlcNAc(b1-2)[GlcNAc(b1-3)Gal(b1-4)GlcNAc(b1-6)]Man(a1-6)[GlcNAc(b1-3)Gal(b1-4)GlcNAc(b1-2)Man(a1-3)]Man(b1-4)GlcNAc(b1-4)GlcNAc
# In short: as §1
# [19] = target: GlcNAc(b1-3)Gal(b1-4)GlcNAc(b1-3)Gal(b1-4)GlcNAc
# In short: as §1
# [20] = target: GlcNAc(b1-3)Gal(b1-4)GlcNAc(b1-3)Gal(b1-4)GlcNAc(b1-2)Man(a1-3)[GlcNAc(b1-3)Gal(b1-4)GlcNAc(b1-3)Gal(b1-4)GlcNAc(b1-2)Man(a1-6)]Man(b1-4)GlcNAc(b1-4)GlcNAc
# In short: as §1
# [21] = target: GlcNAc(b1-3)Gal(b1-4)GlcNAc(b1-3)Gal(b1-4)GlcNAc(b1-2)Man(a1-3)[GlcNAc(b1-3)Gal(b1-4)GlcNAc(b1-3)Gal(b1-4)GlcNAc(b1-2)Man(a1-6)]Man(b1-4)GlcNAc(b1-4)[Fuc(a1-6)]GlcNAc
# In short: as §1
# [22] = target: GlcNAc(b1-3)Gal(b1-4)GlcNAc(b1-3)Gal(b1-4)GlcNAc(b1-2)[GlcNAc(b1-3)Gal(b1-4)GlcNAc(b1-3)Gal(b1-4)GlcNAc(b1-6)]Man(a1-6)[GlcNAc(b1-3)Gal(b1-4)GlcNAc(b1-3)Gal(b1-4)GlcNAc(b1-2)Man(a1-3)]Man(b1-4)GlcNAc(b1-4)[Fuc(a1-6)]GlcNAc
# In short: as §1
# [23] = target: GlcNAc(b1-3)Gal(b1-4)GlcNAc(b1-3)Gal(b1-4)GlcNAc(b1-3)Gal(b1-4)GlcNAc(b1-2)Man(a1-3)[GlcNAc(b1-3)Gal(b1-4)GlcNAc(b1-3)Gal(b1-4)GlcNAc(b1-3)Gal(b1-4)GlcNAc(b1-2)Man(a1-6)]Man(b1-4)GlcNAc(b1-4)GlcNAc
# In short: as §1
# [24] = target: GlcNAc(b1-3)Gal(b1-4)GlcNAc(b1-3)Gal(b1-4)GlcNAc(b1-3)Gal(b1-4)GlcNAc(b1-2)Man(a1-3)[GlcNAc(b1-3)Gal(b1-4)GlcNAc(b1-3)Gal(b1-4)GlcNAc(b1-3)Gal(b1-4)GlcNAc(b1-2)Man(a1-6)]Man(b1-4)GlcNAc(b1-4)[Fuc(a1-6)]GlcNAc
# In short: as §1
# [25] = target: GlcNAc(b1-3)Gal(b1-4)GlcNAc(b1-3)Gal(b1-4)GlcNAc(b1-3)Gal(b1-4)GlcNAc(b1-2)[GlcNAc(b1-3)Gal(b1-4)GlcNAc(b1-3)Gal(b1-4)GlcNAc(b1-3)Gal(b1-4)GlcNAc(b1-6)]Man(a1-6)[GlcNAc(b1-3)Gal(b1-4)GlcNAc(b1-3)Gal(b1-4)GlcNAc(b1-3)Gal(b1-4)GlcNAc(b1-2)Man(a1-3)]Man(b1-4)GlcNAc(b1-4)[Fuc(a1-6)]GlcNAc
# In short: as §1
# [26] = target: GlcNAc(b1-3)Gal(b1-4)GlcNAc(b1-3)Gal(b1-4)GlcNAc(b1-3)Gal(b1-4)GlcNAc(b1-3)Gal(b1-4)GlcNAc(b1-2)Man(a1-3)[GlcNAc(b1-3)Gal(b1-4)GlcNAc(b1-3)Gal(b1-4)GlcNAc(b1-3)Gal(b1-4)GlcNAc(b1-3)Gal(b1-4)GlcNAc(b1-2)Man(a1-6)]Man(b1-4)GlcNAc(b1-4)GlcNAc
# In short: as §1
# [27] = target: GlcNAc(b1-3)Gal(b1-4)GlcNAc(b1-3)Gal(b1-4)GlcNAc(b1-3)Gal(b1-4)GlcNAc(b1-3)Gal(b1-4)GlcNAc(b1-2)Man(a1-3)[GlcNAc(b1-3)Gal(b1-4)GlcNAc(b1-3)Gal(b1-4)GlcNAc(b1-3)Gal(b1-4)GlcNAc(b1-3)Gal(b1-4)GlcNAc(b1-2)Man(a1-6)]Man(b1-4)GlcNAc(b1-4)[Fuc(a1-6)]GlcNAc
# In short: as §1
binder,measurement,setting,value
B1,glycan array binding signal (z-score),[1],-0.568
same,glycan array binding signal (z-score),[2],-0.268
same,glycan array binding signal (z-score),[3],-0.028
same,glycan array binding signal (z-score),[4],-0.293
same,glycan array binding signal (z-score),[5],0.037
same,glycan array binding signal (z-score),[6],1.22
same,glycan array binding signal (z-score),[7],-0.412
same,glycan array binding signal (z-score),[8],-0.459
same,glycan array binding signal (z-score),[9],-0.285
same,glycan array binding signal (z-score),[10],2.27
same,glycan array binding signal (z-score),[11],-0.092
same,glycan array binding signal (z-score),[12],-0.341
same,glycan array binding signal (z-score),[13],-0.458
same,glycan array binding signal (z-score),GlcNAc(b1-3)Fuc,2.71
same,glycan array binding signal (z-score),GlcNAc(b1-3)Gal,-0.578
same,glycan array binding signal (z-score),[14],-0.451
same,glycan array binding signal (z-score),GlcNAc(b1-3)Gal(b1-4)Glc,-0.391
same,glycan array binding signal (z-score),[15],-0.466
same,glycan array binding signal (z-score),[16],-0.456
same,glycan array binding signal (z-score),[17],0.263
same,glycan array binding signal (z-score),[18],-0.438
same,glycan array binding signal (z-score),[19],-0.352
same,glycan array binding signal (z-score),[20],0.743
same,glycan array binding signal (z-score),[21],-0.076
same,glycan array binding signal (z-score),[22],-0.496
same,glycan array binding signal (z-score),[23],-0.507
same,glycan array binding signal (z-score),[24],-0.03
same,glycan array binding signal (z-score),[25],-0.512
same,glycan array binding signal (z-score),[26],-0.413
same,glycan array binding signal (z-score),[27],1.09
